# Measurements: the supplement of paper PMC12217912
# The list shows a part of the results. The full chains were built here from the parent and the listed change. Values near 0.05 are background.
# B1: TEV protease; numbered along this chain (parent)
# chain: MGESLFKGPRDYNPISSSICHLTNESDGHTTSLYGIGFGPFIITNKHLFRRNNGTLVVQSLHGVFKVKDTTTLQQHLVDGRDMIIIRMPKDFPPFPQKLKFREPQREERICLVTTNFQTKSMSSMVSDTSCTFPSGDGIFWKHWIQTKDGQCGSPLVSTRDGFIVGIHSASNFTNTNNYFTSVPKNFMELLTNQEAQQWVSGWRLNADSVLWGGHKVFMVKPEEPFQPVKEATQL
# Variants of: B1
# Assay: raw area under fraction-flipped curve 0-4 h after induction (AUC4h, not background-subtracted), DNA-recorder readout of cleavage of the substrate (dimensionless); higher = more cleavage of the substrate by the protease variant
# Details: temperature: 34 °C; time window: 0-4 h after rhamnose induction
# Experimental: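 In vivo DNA recorder in E. coli TOP10(DE3) ΔrhaA at 34 °C. Each TEVp single-site mutant (parent TEVp 0) is paired with a single-site variant of the 7-mer TEVs (canonical ENLYFQ|S). The substrate sits between flexible linkers in a Bxb1-sfGFP-TEVs-SsrA fusion, so cleavage stabilises Bxb1 and speeds flipping of a recombination array, read by NGS. The value is the raw area under the fraction-flipped curve over 0-4 h after rhamnose induction (AUC4h), with ≥20 reads per time point. It is not background-subtracted; inactive controls average about 0.047.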
# 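Also: Bxb1 expression induced with 0.2% (w/v) L-rhamnose at OD600 near 0.5, cultures sampled hourly, flipped fraction per protease–substrate barcode pair counted by paired-end Illumina sequencing.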
Variant,area with substrate ENLYFCS,area with substrate ENLYFDS,area with substrate ENLYFES,area with substrate ENLYFFS,area with substrate ENLYFHS,area with substrate ENLYFKS,area with substrate ENLYFLS,area with substrate ENLYFMS,area with substrate ENLYFNS,area with substrate ENLYFPS,area with substrate ENLYFTS,area with substrate ENLYFVS,area with substrate ENLYFYS,area with substrate ENLYFIS,area with substrate ENLYFRS,area with substrate ENLYFGS,area with substrate ENLYFSS,area with substrate ENLYFWS
MGESLFKGPRDYNPISSSICHLTNESDGHTTSLYGIGFGPFIITNKHLFRRNNGTLVVQSLHGVFKVKDTTTLQQHLVDGRDMIIIRMPKDFPPFPQKLKFREPQREERICLVTTNFQTKSMSSMVSDTSCTFPSGDGIFWKHWIQTKDGQCGSPLVSTRDGFIVGIHSASNFTNTNKYFTSVPKNFMELLTNQEAQQWVSGWRLNADSVLWGGHKVFMVKPEEPFQPVKEATQL [N178K],0.0486,0.0653,0.0812,0.0646,0.0707,0.0738,0.0459,0.0567,0.0659,0.0536,0.0595,0.053,0.0553,–,–,–,–,–
MGESLFKGPRDYNPISSSICHLTNESDGHTTSLYGIGFGPFIITNKHLFRRNNGTLVVQSLHGVFKVKDTTTLQQHLVDGRDMIIIRMPKDFPPFPQKLKFREPQREERICLVTTNFQTKSMSSMVSDTSCTFPSGDGIFWKHWIQTKDGQCGSPLVSTRDGFIVGIHSASNFTNTNNYFTSVPKNFMELLTNQEAQQWVSGWRLNADSVLCGGHKVFMVKPEEPFQPVKEATQL [W212C],0.0585,–,–,0.0743,0.073,–,–,–,–,0.0636,–,–,0.0547,0.0582,0.0745,–,–,–
MGESLFKGPRDYNPISSSICHLTNESDGHTTSLYGIGFGPFIITNKHLFRRNNGTLVVQSLHGVFKVKDTTTLQQHLVDGRDMIIIRMPKDFPPFPQKLKFREPQREERICLVTTNFQTKSMSSMVSDTSCTFPSGDGINWKHWIQTKDGQCGSPLVSTRDGFIVGIHSASNFTNTNNYFTSVPKNFMELLTNQEAQQWVSGWRLNADSVLWGGHKVFMVKPEEPFQPVKEATQL [F140N],0.0706,–,0.0623,0.0699,0.0533,0.0609,–,0.0655,0.0795,0.0618,0.0591,0.0722,0.0542,0.0519,–,0.0627,0.0512,0.0572
MGESLFLGPRDYNPISSSICHLTNESDGHTTSLYGIGFGPFIITNKHLFRRNNGTLVVQSLHGVFKVKDTTTLQQHLVDGRDMIIIRMPKDFPPFPQKLKFREPQREERICLVTTNFQTKSMSSMVSDTSCTFPSGDGIFWKHWIQTKDGQCGSPLVSTRDGFIVGIHSASNFTNTNNYFTSVPKNFMELLTNQEAQQWVSGWRLNADSVLWGGHKVFMVKPEEPFQPVKEATQL [K7L],0.0475,–,–,–,–,–,–,0.0664,–,–,0.0541,–,0.0417,0.0528,0.0635,–,–,0.0561
MGESLFKGPRDYNPISSSICHLTNESDGHTTSLYGIGFGPFIITNKHLFRRNNGTLVVQSLHGVFKVKDTTTLQQHLVDGRDMIIIRMPKDFPPFPQKLKFREPQREERICLVTTNFQTKSMSSMVSDTSCTFPSGDGIFWKHWIQTKDGQCGSPLVSTRDGFIVGIHSASNFTNTNNYFTSVPKNFMELLTNQEAQQWVSGWRLNADSVLWGGHKVFMVKPEEQFQPVKEATQL [P225Q],0.0621,–,0.0742,0.0739,–,0.0591,0.0607,0.0596,0.0565,0.0608,–,0.0614,0.0456,0.0597,–,–,–,–
MGESLFKGPRDYNPISSSICHLTNESDGHTTSLYGIGFGPFIITNKHLFRRNNGTLVVQSLHGVFKVKDTTTLQQHLVDGRDMIIIRMPKDFPPFPQKLKFREPQREERICLVTTNSQTKSMSSMVSDTSCTFPSGDGIFWKHWIQTKDGQCGSPLVSTRDGFIVGIHSASNFTNTNNYFTSVPKNFMELLTNQEAQQWVSGWRLNADSVLWGGHKVFMVKPEEPFQPVKEATQL [F117S],0.082,–,0.0601,–,–,0.0711,0.0454,0.0911,0.0636,0.0651,–,–,–,0.0615,–,0.0459,–,0.0415
MGESLFKGPRDYNPISSSICHLTNESDGHTTSLYGIGFGPFIITNKHLFRRNNGTLVVQSLHGVFKVKDTTTLQQHLVDGRDMIIIRMPKDFPPFPQKLKFREPQREERICLVTTNFQTKSMSSMVSDTKCTFPSGDGIFWKHWIQTKDGQCGSPLVSTRDGFIVGIHSASNFTNTNNYFTSVPKNFMELLTNQEAQQWVSGWRLNADSVLWGGHKVFMVKPEEPFQPVKEATQL [S130K],0.0499,–,0.0623,0.0591,0.052,0.0628,–,0.0564,0.0715,0.0561,–,0.0619,0.0536,0.0503,0.0534,0.0556,0.0622,0.0503
MGESLFKGPRDYNPISSSICHLTNESDGHTTSLYGIGFGPFIITNKHLFRRNNGTLVVQSLHGVFKVKDTTTLQQHLVDGRDMIIIRMPKDFPPFPQKLKFREPQREERICLVTTNFQTKSMSSMVSDTSCTFPSGDGIFWKHWIQTKDGQCGSPLVSTRDKFIVGIHSASNFTNTNNYFTSVPKNFMELLTNQEAQQWVSGWRLNADSVLWGGHKVFMVKPEEPFQPVKEATQL [G162K],0.0838,–,0.0785,–,–,–,–,0.0665,–,0.0562,–,–,–,0.0538,–,–,–,–
MGESLFKGPRDYNPISSHICHLTNESDGHTTSLYGIGFGPFIITNKHLFRRNNGTLVVQSLHGVFKVKDTTTLQQHLVDGRDMIIIRMPKDFPPFPQKLKFREPQREERICLVTTNFQTKSMSSMVSDTSCTFPSGDGIFWKHWIQTKDGQCGSPLVSTRDGFIVGIHSASNFTNTNNYFTSVPKNFMELLTNQEAQQWVSGWRLNADSVLWGGHKVFMVKPEEPFQPVKEATQL [S18H],0.0604,0.0423,0.07,–,–,–,0.0598,0.0576,0.0649,0.0563,0.0625,–,0.0356,0.0566,–,0.0338,–,0.0555
